Values of other authors as cited in patent US10072252B2 (priority 2013, dated 2018).

Biological target: Sulfolobus solfataricus SsoPox, wild type (wt), SEQ ID NO: 3 (Saccharolobus solfataricus, UniProt Q97VT7)
Set-up: made in house; host or cells: E. coli BL21(DE3)-pGro7/GroEL
Details: Table 4; cited from earlier work

Chain of Sulfolobus solfataricus SsoPox, wild type (wt), SEQ ID NO: 3 (Q97VT7 whole entry): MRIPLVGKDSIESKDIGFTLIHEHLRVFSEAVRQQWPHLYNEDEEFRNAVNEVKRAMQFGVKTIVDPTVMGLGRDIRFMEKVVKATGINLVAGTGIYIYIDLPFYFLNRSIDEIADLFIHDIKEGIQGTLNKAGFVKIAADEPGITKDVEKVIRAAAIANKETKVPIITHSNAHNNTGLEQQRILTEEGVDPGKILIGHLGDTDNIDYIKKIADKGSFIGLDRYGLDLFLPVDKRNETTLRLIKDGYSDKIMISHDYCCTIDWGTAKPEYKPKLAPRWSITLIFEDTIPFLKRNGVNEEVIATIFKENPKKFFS

CCOP(=S)(OCC)Oc1ccc([N+](=O)[O-])cc1 [Ethyl-Parathion, ethyl-parathion]
Catalytic activity (not detected): ND (not detected)
